Experimental data published in publication PMC4336329 (PLoS ONE, 2015).
Screen size: about 310,000 compounds; about 2,200 (0.71%) showed an effect of 50% or more. Effects have a minus sign here. The list shows a part of the results.

The compounds below were run against human ether-à-go-go-related gene (hERG) potassium channel (human, UniProt Q12809) (assay: primary screen, population patch clamp on CHO cells stably expressing hERG).
human ether-à-go-go-related gene (hERG) potassium channel, sequence (Q12809 whole entry, looked up): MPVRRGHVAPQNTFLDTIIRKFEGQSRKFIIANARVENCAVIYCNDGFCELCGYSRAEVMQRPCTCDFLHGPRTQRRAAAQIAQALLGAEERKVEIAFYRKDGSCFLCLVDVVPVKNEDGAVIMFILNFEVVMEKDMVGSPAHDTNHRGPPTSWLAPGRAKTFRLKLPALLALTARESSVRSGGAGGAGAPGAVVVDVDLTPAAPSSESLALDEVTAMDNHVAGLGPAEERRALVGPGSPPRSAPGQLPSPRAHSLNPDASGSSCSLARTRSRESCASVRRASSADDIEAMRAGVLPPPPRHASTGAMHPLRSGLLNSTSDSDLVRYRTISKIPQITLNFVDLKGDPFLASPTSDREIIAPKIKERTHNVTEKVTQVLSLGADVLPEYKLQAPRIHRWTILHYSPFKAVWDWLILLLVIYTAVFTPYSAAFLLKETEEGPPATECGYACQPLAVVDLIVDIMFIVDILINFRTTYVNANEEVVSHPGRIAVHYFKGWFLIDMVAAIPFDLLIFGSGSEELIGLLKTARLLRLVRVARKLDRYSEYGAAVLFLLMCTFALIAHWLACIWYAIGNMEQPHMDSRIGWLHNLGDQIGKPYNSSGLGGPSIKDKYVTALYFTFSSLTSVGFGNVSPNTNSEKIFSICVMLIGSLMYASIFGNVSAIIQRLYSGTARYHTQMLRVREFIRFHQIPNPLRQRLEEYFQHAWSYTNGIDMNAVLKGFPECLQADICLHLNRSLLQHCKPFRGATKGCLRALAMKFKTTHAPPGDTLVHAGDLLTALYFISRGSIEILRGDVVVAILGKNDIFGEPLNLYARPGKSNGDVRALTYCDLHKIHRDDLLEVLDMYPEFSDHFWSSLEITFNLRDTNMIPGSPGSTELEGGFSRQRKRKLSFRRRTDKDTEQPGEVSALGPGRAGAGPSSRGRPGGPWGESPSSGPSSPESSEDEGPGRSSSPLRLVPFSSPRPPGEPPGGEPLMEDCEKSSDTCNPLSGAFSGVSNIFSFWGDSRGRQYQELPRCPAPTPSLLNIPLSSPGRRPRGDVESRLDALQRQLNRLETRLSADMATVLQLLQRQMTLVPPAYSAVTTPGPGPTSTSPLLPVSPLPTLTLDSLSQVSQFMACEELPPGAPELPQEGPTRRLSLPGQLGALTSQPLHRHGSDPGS
In the case of `COc1ccc(-n2nc(C(=O)NCC(=O)NCc3ccc(F)cc3)c3ccccc3c2=O)cc1`, the “hERG current change (%, negative = inhibition) at 1uM” value is reported as 19.1%. In the case of `Cc1nnc(SCC(=O)NC2CC2)n1-c1ccccc1`, the “hERG current change (%, negative = inhibition) at 1uM” value is reported as 14.5%. `c1coc(CN2CN=C(Nc3nc4ccccc4s3)NC2)c1` was tested, and the “hERG current change (%, negative = inhibition) at 1uM” value was 22.6%. For `Cc1ccc(NC(=O)c2sccc2C)nc1`, the “hERG current change (%, negative = inhibition) at 1uM” value was 16.3%. In the case of `Cc1cccc2cc(COC(=O)COc3ccccc3)c(=O)[nH]c12`, the “hERG current change (%, negative = inhibition) at 1uM” value is reported as 5.68%. With `COc1cc(CN2CCN(CCCc3ccccc3)CC2CCO)cc(OC)c1` (stereo not shown) the “hERG current change (%, negative = inhibition) at 1uM” value was -46.8%. In the case of `CNS(=O)(=O)Cc1ccc2[nH]cc(CCN(C)C)c2c1.O=C(O)CCC(=O)O`, the “hERG current change (%, negative = inhibition) at 1uM” value is reported as 3.77%. `O=c1[nH]c(=S)n(-c2ccccc2)c(O)c1/C=N/N1CCCCC1c1cccnc1` (stereo not shown) was tested, and the “hERG current change (%, negative = inhibition) at 1uM” value was -3.28%. For `CCn1nc(C)c(NC(=O)/C=C/c2ccc(OC)c(COc3ccc(Cl)cc3Br)c2)c1C`, the “hERG current change (%, negative = inhibition) at 1uM” value was 5.77%. With `Cn1cc([C@@H]2C[C@H]3CN(Cc4cccc(Cl)c4)C(=O)[C@]34CCCN24)c(-c2ccccc2)n1` the “hERG current change (%, negative = inhibition) at 1uM” value was -9.8%. `CCCS(=O)(=O)n1nc(-c2ccc(C)cc2)cc1N` was tested, and the “hERG current change (%, negative = inhibition) at 1uM” value was 17.4%. For `Cc1ccc(C)c2[nH]c(=O)c(CN(CC3CCCO3)C(=S)NCc3ccco3)cc12` (stereo not shown), the “hERG current change (%, negative = inhibition) at 1uM” value was 4.11%. In the case of `COc1cccc(NC(=O)c2cccc(N3C(=O)C4CCC(C)CC4C3=O)c2)c1` (stereo not shown), the “hERG current change (%, negative = inhibition) at 1uM” value is reported as 4.83%. `CCCCCNC(=O)[C@@H]1CSC2c3ccccc3C(=O)N21` (stereo partly shown) was tested, and the “hERG current change (%, negative = inhibition) at 1uM” value was 14%. With `Cc1nc(SC2CCOC2=O)c2c(C)c(C)sc2n1` (stereo not shown) the “hERG current change (%, negative = inhibition) at 1uM” value was 4.94%. For `Cc1ccc(NC(=O)OCCN2CCN(Cc3ccccc3)CCC2=O)cc1`, the “hERG current change (%, negative = inhibition) at 1uM” value was 2.87%. For `Cc1ccc2[nH]c(=S)n(-c3cccnc3)c(=O)c2c1`, the “hERG current change (%, negative = inhibition) at 1uM” value was 10.3%. For `CCOC(=O)c1c(C)oc2c1cc(NS(=O)(=O)c1ccc(C(=O)O)cc1)c1ccccc12`, the “hERG current change (%, negative = inhibition) at 1uM” value was -5.96%. With `CCOc1ccc(C(=O)/C=C/c2cn(CN3CCN(C)CC3)c3ccccc23)cc1` the “hERG current change (%, negative = inhibition) at 1uM” value was -4.61%. In the case of `Cc1ccc(OC(=O)c2ccc(Cl)c([N+](=O)[O-])c2)cn1`, the “hERG current change (%, negative = inhibition) at 1uM” value is reported as 15.6%. For `CCOc1ccc(/C=C/C(=O)c2c(O)cc(C)oc2=O)cc1`, the “hERG current change (%, negative = inhibition) at 1uM” value was 5.52%. `CCOC(=O)Nc1ccc2c(c1)OCO2` was tested, and the “hERG current change (%, negative = inhibition) at 1uM” value was 24.9%. For `Cc1ccc(CN2[C@@H](CC3CCCCC3)COCCS2(=O)=O)cc1`, the “hERG current change (%, negative = inhibition) at 1uM” value was -9%. For `CCC(COC)NC(=O)CCc1nnc(Cc2cccc(C(F)(F)F)c2)o1` (stereo not shown), the “hERG current change (%, negative = inhibition) at 1uM” value was 14.8%. In the case of `CCN1CCN(C(=O)CSc2nc3c(c(=O)n(C)c(=O)n3C)n2C)CC1`, the “hERG current change (%, negative = inhibition) at 1uM” value is reported as 12.8%.
